Numbering of substitutions follows the chain as printed. No constants are given. Whether binding was seen depends on the method and setting. For some assays here: Binding seen in cells or lysates may run through a third protein. Some entries that bind do so weakly or less than the wild type. For some assays here: Where a sequence is shown, tags or fusion partners need not be part of it.
What was measured:
[1] = biological target: LexA-SUN1 (residues 1–210), N-terminus / nucleoplasmic region of SUN1 (human) (UniProt O94901); assay: two-hybrid; LexA-SUN1_(1-210) in pBTM116 with GAL4 activation domain fusions in pACT2, L40 yeast strain; β-galactosidase activity of the reporter gene measured
[2] = biological target: human SUN1 with a C-terminal GFP tag (human) (UniProt O94901); assay: nuclear membrane recruitment (localization) assay, immunofluorescence; GFP-tagged SUN1 or SUN1_(136-155)–MAJIN^DB and Myc-tagged SPDYA co-expressed by lentiviral co-infection in U-2 OS cells; recruitment of SPDYA to the nuclear membrane
[3] = biological target: T1, human SUN1 W150R with a C-terminal GFP tag (human) (UniProt O94901); assay: as above
T1 sequence: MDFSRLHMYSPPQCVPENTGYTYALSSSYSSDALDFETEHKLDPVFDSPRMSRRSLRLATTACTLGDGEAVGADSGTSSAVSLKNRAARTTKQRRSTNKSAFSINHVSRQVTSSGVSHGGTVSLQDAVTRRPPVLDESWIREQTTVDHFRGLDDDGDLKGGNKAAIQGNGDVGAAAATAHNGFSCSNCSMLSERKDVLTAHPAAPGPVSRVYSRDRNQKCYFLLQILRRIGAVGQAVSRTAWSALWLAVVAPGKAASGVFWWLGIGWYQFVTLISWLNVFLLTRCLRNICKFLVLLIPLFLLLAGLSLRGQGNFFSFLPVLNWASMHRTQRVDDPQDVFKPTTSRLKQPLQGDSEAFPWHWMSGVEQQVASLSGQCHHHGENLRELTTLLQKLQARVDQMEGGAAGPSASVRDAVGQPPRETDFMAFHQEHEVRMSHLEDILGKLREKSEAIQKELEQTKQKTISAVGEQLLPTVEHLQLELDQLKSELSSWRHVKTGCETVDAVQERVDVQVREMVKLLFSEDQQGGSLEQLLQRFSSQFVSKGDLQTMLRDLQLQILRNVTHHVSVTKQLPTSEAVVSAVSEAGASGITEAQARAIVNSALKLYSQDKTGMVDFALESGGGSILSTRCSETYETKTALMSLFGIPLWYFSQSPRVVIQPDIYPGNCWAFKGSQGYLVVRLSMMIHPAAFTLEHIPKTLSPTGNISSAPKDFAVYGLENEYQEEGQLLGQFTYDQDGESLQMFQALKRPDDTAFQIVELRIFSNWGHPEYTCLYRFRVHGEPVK

[4] = biological target: T2, human SUN1 W150A with a C-terminal GFP tag (human) (UniProt O94901); assay: as above
T2 sequence: T1 sequence with R150A

[5] = biological target: T3, human Flag-SUN1_(1-210) W150A (human) (UniProt O94901); assay: co-IP; Flag-SUN1_(1-210), Myc-SPDYA and CDK2 ectopically expressed in HEK293T cells, with or without CDK2; immunoprecipitation with anti-Flag beads, immunoblotting
T3 sequence: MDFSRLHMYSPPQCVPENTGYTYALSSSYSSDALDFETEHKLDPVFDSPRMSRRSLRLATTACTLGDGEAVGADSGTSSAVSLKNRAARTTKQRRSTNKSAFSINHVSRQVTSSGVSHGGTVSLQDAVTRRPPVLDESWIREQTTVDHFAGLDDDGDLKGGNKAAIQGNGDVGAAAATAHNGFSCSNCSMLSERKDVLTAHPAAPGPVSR

[6] = biological target: T4, human Flag-SUN1_(1-210) W150R (human) (UniProt O94901); assay: as above
T4 sequence: T3 sequence with A150R

[7] = biological target: human Flag-SUN1_(1-210) (human) (UniProt O94901); assay: as above

GAD-fused SPDYA (Speedy/RINGO A) (from UniProt Q5MJ70 1-313)
binding [1]: binds

human SPDYA with an N-terminal Myc tag (U-2 OS) (from UniProt Q5MJ70 1-313)
binding [2]: binds
binding [3]: no binding
binding [4]: no binding

SPDYA fragment (residues 61–213), extended Ringo domain, Myc-tagged (U-2 OS) (from UniProt Q5MJ70 61-213) (domain or fragment)
binding [2]: binds

human Myc-SPDYA (HEK293T) (from UniProt Q5MJ70 1-313)
binding [5]: no binding
binding [6]: no binding
binding [7]: binds
